This is one part of the list. At the low end of the ranking the order means little.

This is an account of results in publication PMC6212790.

The experiment addresses T1, GST-Rok-C97-191 (UniProt O34857).
T1 sequence: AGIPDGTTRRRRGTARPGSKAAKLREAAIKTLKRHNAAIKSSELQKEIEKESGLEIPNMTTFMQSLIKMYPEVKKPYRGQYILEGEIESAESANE
Description: protein binding microarray.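 Further: rank score from −0.5 (least bound) to 0.5 (best bound).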 The following applies: Rok is a gene silencer of Bacillus subtilis; high values mean tight binding; most listed sequences are background and not binding sites; double strand, one strand shown.
ATGATGGA displayed a binding signal of 0.00571 E-score.

ACGTCTGA gave a binding signal of -0.0393 E-score. As for TCTATGCA, the figure is 0.172 E-score; as for GAGGGCGA, -0.261 E-score; as for TCCTAGGA, 0.0164 E-score. AGCAGAAT: the binding signal was -0.0636 E-score. Sequence ACAATCCG registered a binding signal of -0.113 E-score. Under AGGGCTTC stands -0.321 E-score; under CTGCCTGC, -0.262 E-score. As for ATAAGTGC, the figure is 0.186 E-score; as for CTGGATGA, -0.102 E-score. TCATGTAA returned a binding signal of -0.0761 E-score. As for CTAAAAAG, the figure is 0.0202 E-score; as for GCTCGTAA, 0.0484 E-score; as for AGAAATAC, 0.311 E-score. On to GAGGGTGA, for which the binding signal was -0.112 E-score. As for AGAATGAA, the figure is 0.079 E-score. As to AGCAGGAA, the binding signal was -0.14 E-score. Under ACGGGTTC stands -0.0135 E-score; under ATAGCTCG, 0.101 E-score; under ACTGTCAA, 0.0403 E-score. As for CAATAGCG, the figure is 0.018 E-score.

Take GATGGCCC: the binding signal was -0.293 E-score.

In the case of AGAGAGCA, the binding signal was -0.148 E-score. As to ATCAATTC, the binding signal worked out at 0.142 E-score. Take AAACTGGA: the binding signal is 0.0677 E-score. Sequence AAGCGCAC gave a binding signal of -0.167 E-score.

AAAAAGCA: the binding signal was -0.0319 E-score. Regarding AGAGTGGC, the binding signal was -0.138 E-score. AAGAAGCT came in with a binding signal of -0.0225 E-score. Sequence CACGCCAA returned a binding signal of -0.0207 E-score.

In turn, GCCCTTCC had a binding signal of -0.229 E-score.

With AAAGATTT, the binding signal was -0.0491 E-score. Regarding AACTTGCG, the binding signal was found to be 0.08 E-score.

TACAACAA displayed a binding signal of 0.353 E-score. In turn, TGATCGAA had a binding signal of 0.0159 E-score. AGGGCTCA came in with a binding signal of -0.271 E-score. For GGGGTTTA, the binding signal was -0.266 E-score. Take CCTTCAGC: the binding signal was -0.152 E-score. In the case of AGATCGAC, the binding signal was 0.102 E-score.

The sequence GCCCAGGC displayed a binding signal of -0.25 E-score.

In the case of AGAAAACT, the binding signal amounted to 0.21 E-score. For the sequence CGATAAGC, the binding signal was determined as 0.0146 E-score.

Sequence CGGGCCCG registered a binding signal of -0.236 E-score.

Regarding GGGTTTCA, the binding signal was -0.236 E-score. Under CACGAATG stands -0.00797 E-score; under GAAGGGCA, -0.202 E-score. ATTCAACG yielded a binding signal of -0.00565 E-score. For the sequence GCTACGAA, the binding signal stood at 0.115 E-score.

In turn, TAATAGGA returned a binding signal of 0.219 E-score.

On to GCACGAGC, for which the binding signal was -0.181 E-score. AAGCTATA gave a binding signal of 0.238 E-score. As for ATACTAAC, the figure is 0.103 E-score.

In turn, AAACACGT showed a binding signal of 0.0495 E-score. GCATCAAA yielded a binding signal of 0.0863 E-score. With GAAGAGGC, the binding signal is -0.241 E-score. As to CTGAGGAC, the binding signal is -0.124 E-score. As for AAATTGCT, the binding signal worked out at 0.314 E-score.

In turn, CTTCCAGA showed a binding signal of -0.123 E-score.

The sequence TGATCTAA returned a binding signal of -0.00807 E-score. Regarding AACGAGAA, the binding signal is -0.0372 E-score. With AACCCACG, the binding signal is -0.134 E-score. As for TGAACACA, the figure is -0.205 E-score. Sequence AGACGGTA came in with a binding signal of 0.0923 E-score.

AGGAGTCC came in with a binding signal of -0.0963 E-score. GCCAGACC showed a binding signal of -0.259 E-score. Sequence GATGGTCA had a binding signal of -0.028 E-score. With ACAAGCGG, the binding signal is -0.0216 E-score.

Turning to CAAAAAAA, the binding signal was 0.0672 E-score. With CCACGCGC, the binding signal was -0.0582 E-score. Regarding AACCTACA, the binding signal amounted to 0.315 E-score. ATAAGAGC returned a binding signal of 0.152 E-score. As for AACACTAC, the figure is 0.143 E-score; as for GAACCGGC, -0.0589 E-score. The sequence ACTAAGCT showed a binding signal of 0.115 E-score. CTAGCTCC yielded a binding signal of 0.0154 E-score. Under CACGATTA stands -0.00565 E-score; under CTCCGTAC, 0.0194 E-score; under GTGCTCCA, -0.193 E-score. ATAACCCG showed a binding signal of -0.0342 E-score. ACTAGCTC registered a binding signal of 0.207 E-score.

Sequence TGTTGAAA had a binding signal of 0.107 E-score. Sequence GCAGAGCC had a binding signal of -0.374 E-score. As for CTCCTTCC, the figure is -0.215 E-score. Turning to GCCCCCCC, the binding signal was -0.319 E-score. Under CGCTCCAA stands -0.198 E-score. In turn, ACGAACCT returned a binding signal of -0.0562 E-score. For CATCCAGG, the binding signal is -0.0899 E-score. AAGAGGTC displayed a binding signal of 0.0527 E-score.

AAGCTGGA displayed a binding signal of -0.0851 E-score. AACTGGAA showed a binding signal of -0.00748 E-score. With ATCCGAAA, the binding signal is -0.045 E-score.

Regarding ACTGAGCG, the binding signal was -0.0359 E-score. Under ACCGCAGC stands 0.0454 E-score.
